Results reported in the RNAGym collection of RNA variant scans (doi:10.1093/nar/gkz1192).
Read counts are not given, so values of variants with three or more changes are uncertain.

B1: CPEB3 Ribozyme (parent)
chain: UAACAGGGGGCCACAGCAGAAGCGUUCACGUCGCAGCCCCUGUCAGAUUCUGGUGAAUCUGCGAAUUCUGCUGUAUAUCUC

Variants of: B1
Experiment: self-cleavage, relative activity (ratio to wild type); higher = more cleavage; in vitro, sequencing
Outline: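 Relative activity compares each variant's cleaved/total read fraction with that of the unmutated ribozyme. To get these fractions, barcoded CPEB3 ribozyme libraries from rounds of error-prone PCR were transcribed with T7 RNA polymerase for 5 hours at 37°C and then given 15 min of DNase I treatment before EDTA was added. The RNAs were reverse transcribed with template switching and sequenced on Illumina, and DNA sequencing linked barcodes to variants. A minimum of 5 reads applied, and three batches were averaged.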

Row | Variant | self-cleavage
1 | A18U U25C U41A A47G U67C | 0.21
2 | A18U U25C U41A U48C U58C | 0.24
3 | A18U U25C U41C U78C | 0.09
4 | A18U U25C U49C U67C | 0.14
5 | A18U U25C U51C U54C | 0.14
6 | A18U U25C U54C U58A U69A | 0.09
7 | A18U U25C U58C U76A | 0.08
8 | A18U U25C U72A G73A | 0.22
9 | A18U U25C U78A | 0.07
10 | A18U U25G U41A G53C A64G | 0.06
11 | A18U U26A A28G C40U G63A A75C | 0.06
12 | A18U U26A A28U C32A U54C U76G C81U | 0.05
13 | A18U U26A A35U U43A | 0.09
14 | A18U U26A A45G | 0.14
15 | A18U U26A A45U U80C | 0.29
16 | A18U U26A A47G U54C U58C C71A | 0.07
17 | A18U U26A A57G | 0.19
18 | A18U U26A A65G | 0.42
19 | A18U U26A C29U U43A | 0.29
20 | A18U U26A C32U U41C U43C U49C | 0.06
21 | A18U U26A G30C U74C | 0.24
22 | A18U U26A U31C | 0.43
23 | A18U U26A U43C U48C A56G A77G | 0.26
24 | A18U U26A U43C U51C U69A U72C | 0.26

Row | Variant | self-cleavage
25 | A18U U26A U58C U69C U80A | 0.11
26 | A18U U26A U74A | 0.52
27 | A18U U26A U76C U80A | 0.43
28 | A18U U26C A45G | 0.68
29 | A18U U26C A45U A65G A77G | 0.09
30 | A18U U26C A56U | 0.19
31 | A18U U26C A64G U72A | 0.07
32 | A18U U26C A65G | 0.3
33 | A18U U26C C32G A47G U48C U72A | 0.14
34 | A18U U26C C37U U54C U72A U74C | 0.04
35 | A18U U26C C39G U43C U54C | 0.17
36 | A18U U26C G30A A35U U60A | 0.06
37 | A18U U26C G33A A45G A47C | 0.15
38 | A18U U26C G42A A65U U80C | 0.06
39 | A18U U26C G46A A64G A75U | 0.18
40 | A18U U26C G46U A57G | 0.06
41 | A18U U26C G70A C71U | 0.19
42 | A18U U26C U31C A56G | 0.23
43 | A18U U26C U31C U48C U80G | 0.11
44 | A18U U26C U31C U67G U76C | 0.12
45 | A18U U26C U41C U43C U69C U74C U78G | 0.17
46 | A18U U26C U43C U69A A75C | 1.05
47 | A18U U26C U48C | 0.3
48 | A18U U26C U48C U51C U67C U69C | 0.06

Row | Variant | self-cleavage
49 | A18U U26C U49A A57G U58G U72C | 0.06
50 | A18U U26C U49C | 0.13
51 | A18U U26C U51A U69C | 0.17
52 | A18U U26C U51C A75U U76C | 0.06
53 | A18U U26C U58C | 0.08
54 | A18U U26C U66C | 0.19
55 | A18U U26C U67C | 0.22
56 | A18U U26C U69A | 0.58
57 | A18U U26C U69A C81U | 0.47
58 | A18U U31A A35C U72A | 0.1
59 | A18U U31A A45G A47G | 0.32
60 | A18U U31A A45G U66A A77G | 0.07
61 | A18U U31A A56U U60A U74A | 0.21
62 | A18U U31A A77G | 0.08
63 | A18U U31A C34U U72C | 0.06
64 | A18U U31A C37G C40U U43C | 0.17
65 | A18U U31A C68U | 0.17
66 | A18U U31A U41A A56G A75G | 0.28
67 | A18U U31A U41A U54C U74C | 0.11
68 | A18U U31A U67C | 0.11
69 | A18U U31A U74C | 0.42
70 | A18U U31C A35C U60A U78C | 0.08
71 | A18U U31C A35U A64U | 0.17
72 | A18U U31C A47G | 0.29

Row | Variant | self-cleavage
73 | A18U U31C A57G | 0.16
74 | A18U U31C A64U | 0.16
75 | A18U U31C C32G U41A U60A C81A | 0.05
76 | A18U U31C C39U C62U A75G | 0.07
77 | A18U U31C C40A U69C | 0.13
78 | A18U U31C U41C U54G U78C U80C | 0.1
79 | A18U U31C U41C U72C | 0.14
80 | A18U U31C U43A | 0.24
81 | A18U U31C U43C C50U | 0.36
82 | A18U U31C U54A U60C U74C | 0.21
83 | A18U U31C U54C A56G | 0.28
84 | A18U U31C U58C | 0.16
85 | A18U U31C U66A | 0.13
86 | A18U U31C U69G | 0.48
87 | A18U U31C U72G | 0.2
88 | A18U U31G U43A U54A U78C | 0.16
89 | A18U U41A A47G U54C U67A | 0.05
90 | A18U U41A A65G | 0.18
91 | A18U U41A U54C U67C | 0.11
92 | A18U U41A U54G U69A U78A | 0.06
93 | A18U U41A U67A U69A U80C | 0.11
94 | A18U U41C A45G A47G U69C U72C | 0.11
95 | A18U U41C A47G | 0.24
96 | A18U U41C A47G U51A U69C | 0.29

Row | Variant | self-cleavage
97 | A18U U41C A56G A65U | 0.35
98 | A18U U41C A64G A77U | 0.4
99 | A18U U41C A65U U67C | 0.15
100 | A18U U41C A75G | 0.57
101 | A18U U41C A75U | 0.32
102 | A18U U41C C62A | 0.17
103 | A18U U41C G61A U69G C79U | 0.85
104 | A18U U41C G63A U72C | 0.4
105 | A18U U41C U49C U51A U54A | 0.44
106 | A18U U41C U51G A65G | 0.22
107 | A18U U41C U54A A56G A57G U60A A64G | 0
108 | A18U U41C U60C U80A | 0.11
109 | A18U U41C U66C A75C | 0.17
110 | A18U U41C U67C | 0.26
111 | A18U U41C U69A U72C | 1.02
112 | A18U U41G A45U | 0.37
113 | A18U U41G U54A A57G U58G A64U C81A | 0.1
114 | A18U U41G U78A | 0.07
115 | A18U U43A A56U U72A | 0.13
116 | A18U U43A A57C G70A U74C | 0.13
117 | A18U U43A U49C | 0.39
118 | A18U U43A U54C | 0.43
119 | A18U U43C A45G | 0.19
120 | A18U U43C A47G | 0.46

Row | Variant | self-cleavage
121 | A18U U43C A64G | 0.1
122 | A18U U43C C62U | 0.3
123 | A18U U43C U51A G61A | 0.4
124 | A18U U43C U54A A57G U60C | 0.27
125 | A18U U43C U58A U66A | 0.07
126 | A18U U43C U58C U60C A65G | 0.3
127 | A18U U43C U69C | 0.15
128 | A18U U43G A45U U74A | 0.06
129 | A18U U43G G53A A65G G73A | 0.05
130 | A18U U43G U60C A64G U78A U80A | 0.22
131 | A18U U48A A56U | 0.13
132 | A18U U48C C62G A65U | 0.2
133 | A18U U48C U51C A56C A65G | 0
134 | A18U U48C U54C U67C U74A | 0.14
135 | A18U U49A U60C | 0.2
136 | A18U U49A U69C U74C | 0.47
137 | A18U U49C U54A | 0.23
138 | A18U U49C U60C C71G | 0.15
139 | A18U U49C U66A U78C U80C | 0.06
140 | A18U U49C U78A U80C | 0.23
141 | A18U U49G U60A | 0.12
142 | A18U U51A A56G | 0.25
143 | A18U U51A U66C | 0.39
144 | A18U U51A U66C U78C | 0.32

Row | Variant | self-cleavage
145 | A18U U51C A56U | 0.19
146 | A18U U51C A64U U78C | 0.33
147 | A18U U51C C62U | 0.27
148 | A18U U51C U58A | 0.24
149 | A18U U51C U58A U72A | 0.06
150 | A18U U51C U60C U69C U76C | 0.3
151 | A18U U51C U78C | 0.41
152 | A18U U54C A77U U78C | 0.21
153 | A18U U54C C59A | 0.13
154 | A18U U54C G55U | 0.23
155 | A18U U54C G70C | 0.44
156 | A18U U54C U58C | 0.18
157 | A18U U54C U72C | 0.18
158 | A18U U54C U78C | 0.32
159 | A18U U54G A57G A64U | 0.16
160 | A18U U54G U72A U80C | 0.47
161 | A18U U58A U78C | 0.21
162 | A18U U58C A75U | 0.43
163 | A18U U58C G61U | 0.16
164 | A18U U58G U67C | 0.14
165 | A18U U60C A65G | 0.18
166 | A18U U60C U72C | 0.09
167 | A18U U60C U80C | 0.24
